Results on two molecules are retold here after PMC4499112.

In experiment [1] the target is T1, FLAG-Rab3B^T36N (rat) (UniProt Q63941).
T1 sequence: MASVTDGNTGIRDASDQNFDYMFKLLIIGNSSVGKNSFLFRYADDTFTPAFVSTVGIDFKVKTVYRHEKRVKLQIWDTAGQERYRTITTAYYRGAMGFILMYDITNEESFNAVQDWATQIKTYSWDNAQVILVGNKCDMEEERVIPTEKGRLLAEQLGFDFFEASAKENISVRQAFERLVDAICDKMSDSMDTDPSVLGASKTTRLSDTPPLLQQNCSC
In words: pull-down; FLAG-Rab3B mutants from HEK293T cells immobilised on anti-FLAG-antibody agarose beads, washed, incubated 2 h with whole-cell lysate of basal or insulin-stimulated rat adipocytes; high-salt elution; immunoblot for Noc2; only the target purified. (In general: A western blot detects proteins with antibodies after separation by electrophoresis.)

Experiment [2] concerns the target T2, FLAG-Rab3B^Q81L (rat) (UniProt Q63941).
T2 sequence: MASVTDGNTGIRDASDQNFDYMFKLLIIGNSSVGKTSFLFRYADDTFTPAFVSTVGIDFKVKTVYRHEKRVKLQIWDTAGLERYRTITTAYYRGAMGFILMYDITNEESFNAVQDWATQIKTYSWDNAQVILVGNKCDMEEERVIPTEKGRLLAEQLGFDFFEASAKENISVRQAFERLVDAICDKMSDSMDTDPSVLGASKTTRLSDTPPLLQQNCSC
The description is as above.

The target of experiment [3] is T3, GST-Noc2 WT (UniProt O54880).
T3 sequence: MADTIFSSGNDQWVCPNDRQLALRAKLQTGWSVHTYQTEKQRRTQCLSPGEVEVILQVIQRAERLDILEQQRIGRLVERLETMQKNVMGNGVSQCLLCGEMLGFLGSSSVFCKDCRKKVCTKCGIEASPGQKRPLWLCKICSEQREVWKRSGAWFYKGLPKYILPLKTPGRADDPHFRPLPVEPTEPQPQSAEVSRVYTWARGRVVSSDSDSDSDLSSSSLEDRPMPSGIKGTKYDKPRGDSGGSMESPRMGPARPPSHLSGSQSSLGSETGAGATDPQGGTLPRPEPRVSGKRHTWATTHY
In words: pull-down; GST-Noc2 WT on glutathione beads or MBP-Noc2 WT on amylose beads; lysate of basal or insulin-treated (also wortmannin before insulin) rat adipocytes overexpressing FLAG-Rab3B, 2 h at 4°C; anti-FLAG immunoblot; only the target purified.

For experiment [4], the target named is T4, maltose-binding protein (MBP)-Noc2 WT (UniProt O54880).
T4 sequence: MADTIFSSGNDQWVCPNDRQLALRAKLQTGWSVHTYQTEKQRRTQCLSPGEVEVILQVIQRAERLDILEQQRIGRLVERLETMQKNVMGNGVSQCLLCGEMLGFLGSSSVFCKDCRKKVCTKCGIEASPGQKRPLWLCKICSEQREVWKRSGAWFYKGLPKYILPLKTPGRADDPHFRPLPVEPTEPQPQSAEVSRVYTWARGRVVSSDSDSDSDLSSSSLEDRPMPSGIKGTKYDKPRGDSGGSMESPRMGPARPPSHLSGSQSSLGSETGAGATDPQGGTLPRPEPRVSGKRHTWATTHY
The description is as above.

Experiment [5] concerns the target T3, GST-Noc2 WT. In words: pull-down; GST-Noc2 WT or AAA on glutathione beads; lysate of rat adipocytes expressing FLAG-Rab3B, loaded with GTPγS; anti-FLAG immunoblot; only the target purified.
Experiment [6] deals with T5, GST-Noc2^AAA (UniProt O54880).
T5 sequence: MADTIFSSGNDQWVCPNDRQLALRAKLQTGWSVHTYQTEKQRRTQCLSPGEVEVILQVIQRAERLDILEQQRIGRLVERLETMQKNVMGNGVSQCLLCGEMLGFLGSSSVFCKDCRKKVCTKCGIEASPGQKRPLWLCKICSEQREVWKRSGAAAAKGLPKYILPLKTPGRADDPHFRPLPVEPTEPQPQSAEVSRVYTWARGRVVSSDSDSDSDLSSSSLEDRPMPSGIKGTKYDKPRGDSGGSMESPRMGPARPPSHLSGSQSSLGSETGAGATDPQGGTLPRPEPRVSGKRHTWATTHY
The description is as above.

Results are given in words; binding and its absence hold for the method and conditions named. In cells and extracts the contact can be indirect. Some results given as binding are weak or reduced against the parent protein; the word gives no strength. Where a sequence is shown, tags or fusion partners need not be part of it.

B1: Noc2 (endogenous, rat adipocytes) (protein, UniProt O54880 1-302)
chain: MADTIFSSGNDQWVCPNDRQLALRAKLQTGWSVHTYQTEKQRRTQCLSPGEVEVILQVIQRAERLDILEQQRIGRLVERLETMQKNVMGNGVSQCLLCGEMLGFLGSSSVFCKDCRKKVCTKCGIEASPGQKRPLWLCKICSEQREVWKRSGAWFYKGLPKYILPLKTPGRADDPHFRPLPVEPTEPQPQSAEVSRVYTWARGRVVSSDSDSDSDLSSSSLEDRPMPSGIKGTKYDKPRGDSGGSMESPRMGPARPPSHLSGSQSSLGSETGAGATDPQGGTLPRPEPRVSGKRHTWATTHY
Turning to B1, the binding entry in experiment [1] was “binds”; in experiment [2] it was “no binding”.

B2: FLAG-Rab3B (wild type) (protein, UniProt Q63941 1-219)
chain: MASVTDGNTGIRDASDQNFDYMFKLLIIGNSSVGKTSFLFRYADDTFTPAFVSTVGIDFKVKTVYRHEKRVKLQIWDTAGQERYRTITTAYYRGAMGFILMYDITNEESFNAVQDWATQIKTYSWDNAQVILVGNKCDMEEERVIPTEKGRLLAEQLGFDFFEASAKENISVRQAFERLVDAICDKMSDSMDTDPSVLGASKTTRLSDTPPLLQQNCSC
Consider B2, for which the binding result is given as “binds” in experiment [3], “binds” in experiment [4], “binds” in experiment [5] and “no binding” in experiment [6].
